# In PubChem BioAssay AID651567 (National Center for Advancing Translational Sciences (NCATS), 2012):
# The whole screen tested about 1,200 compounds, of which about 10 (0.8%) were called active. Roughly 4% stayed inconclusive and do not appear here. Calls follow the shape of the dose curve; as a rule, active = well fitted inhibition curve with a large enough effect; inconclusive = small, poorly fitted or top-dose-only effect; inactive = no such curve, though single readings can be large or run the other way. Some of the results follow.
# Test: qHTS Assay to Find Inhibitors of Chronic Active B-Cell Receptor Signaling: Hit Validation in OCI-Ly3 Assay
# Conditions: OCI-Ly3 IkB-luciferase reporter, Chroma-Glo luminescence, 4 h; series mostly up to 46.1 µM; activity change, negative = inhibition: at the top concentration
# Procedure, shortened: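 OCI-Ly3 cells in IMDM with 0.5% FBS get compound plus 80ng/ml doxycycline (dispensed solution), 4 hrs at 37C. Chroma-Glo read of green IkB-luc and red unfused luc; green/red ratio normalized to basal (0%) and 10 uM MG-132 (100%); concentration-response curves for each signal.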
# % is scaled to controls: 0 for no effect and ±100 for the full control effect; potency is read from the fitted curve at half-maximal effect.
Structure (SMILES),"activity change, negative = inhibition",Potency
O=S(=O)(Nc1cccc2ncccc12)c1cccs1,inactive: 70%,–
COc1cc2c(cc1OC)C(/C(C#N)=N\O)=NC(C)(C)C2,inactive: -0.106%,–
Cc1c(NC(=S)NC(=O)C(c2ccccc2)c2ccccc2)cccc1C(=O)O,inactive: 0.384%,–
OCc1ccnc2c(O)cccc12,inactive: 0.198%,–
O=C(OCC(=O)c1ccc[nH]1)c1ccc(Cl)c(Cl)c1,inactive: -3.15%,–
CCC1=Nc2cc(C(=O)NCc3cccnc3)ccc2Sc2ccc(C)cc21,inactive: -7.04%,–
CCOc1cccc(C2CC(=O)Nc3cc(OC)c(OC)cc32)c1 (configuration not stated),inactive: -0.445%,–
Clc1ccc(C2=Nn3c(nnc3-c3cc(-c4ccccc4)n[nH]3)SC2)cc1,inactive: -5.82%,–
CCN(CC(=O)NCc1ccc(F)cc1)C(=O)/C=C/c1ccc(OC)c(S(=O)(=O)NC(C)C)c1,inactive: -1.47%,–
COc1cc2c(cc1OC)-c1cc(NC3CCCC3)nc(=O)n1CC2,inactive: -0.848%,–
COC(=O)c1cc(C(=O)N2CCN(c3cccc(Cl)c3)CC2)cc([N+](=O)[O-])c1,inactive: -3.03%,–
Cc1cc(C(N)=O)nn1-c1c(Cl)cc(Cl)cc1Cl,inactive: -0.427%,–
CCOc1ccc(S(=O)(=O)Nc2cc(OC)ccc2OC)cc1,inactive: -2.95%,–
COc1cccc(N2CCN(C(=O)c3ccc(CS(=O)c4ccc(Cl)cc4)o3)CC2)c1 (configuration not stated),inactive: -2.77%,–
COc1ccccc1NC(=O)c1c(N=Cc2c(O)ccc3ccccc23)cnn1C,inactive: -2.72%,–
COc1ccc(C2CC(c3c(O)cc(C)oc3=O)=NCCS2)c(OC)c1 (configuration not stated),inactive: -3.45%,–
COc1cc(Nc2c3c(nc4ccccc24)CCC3)cc(OC)c1OC,inactive: -6.46%,–
Oc1ccccc1-n1c(-c2ccccc2)ccc1-c1ccccc1,inactive: -1.51%,–
COc1cc(C(=O)N/N=C/C2CC=CCC2)cc(OC)c1OC (configuration not stated),inactive: -1.17%,–
Cc1cc(C)c2nc(C(F)(F)F)nc(NCCCN3CCOCC3)c2c1,inactive: -0.777%,–
COc1ccc(C2=Nn3c(nnc3-c3ccc(OC)cc3)SC2)cc1,inactive: -4.92%,–
C=CCNC(=S)N/N=C/c1cn(C)c2ccccc12,inactive: -0.555%,–
Cc1ccccc1Nc1nc(N)nc(COC(=O)c2cccc(S(=O)(=O)N(C)C)c2)n1,inactive: -0.606%,–

Structure (SMILES),"activity change, negative = inhibition",Potency
CCc1cc2c(SCC(=O)Nc3ccc(NC(C)=O)cc3)ncnc2s1,inactive: -0.445%,–
CN(CC(=O)Nc1ccc2c(c1)OCCO2)Cc1nc2ccccc2c(=O)[nH]1,inactive: -0.289%,–
CCN(CC)c1ccc2cc(-c3nc4ccccc4n3C)c(=O)oc2c1,inactive: -1.04%,–
COc1cc(C(=O)O/N=C(\N)c2ccc([N+](=O)[O-])cc2)cc(OC)c1OC,inactive: -0.586%,–
COc1cc(OC)cc(C(=O)N[C@H](C(=O)Nc2nc3ccccc3[nH]2)C(C)C)c1,inactive: -2.01%,–
Cc1ccc(C)c(Cn2c(=O)n(-c3ccc(CC(=O)NCc4ccco4)cc3)c(=O)c3sccc32)c1,inactive: -0.0393%,–
COc1cc2c(c(OC)c1OC)-c1ccc(OC)c(=O)cc1[C@@H](N(C)CC#CCO)CC2,inactive: -1.53%,–
O=C(Nc1ccc(N2CCCC2)cc1)c1cc(Cl)ccc1Cl,inactive: -1.28%,–
O=C(CSc1cccc[n+]1[O-])CSc1cccc[n+]1[O-],inactive: -1.14%,–
N#CCCn1cc(/C=N/NC(N)=S)c(-c2ccc(Br)cc2)n1,inactive: -1.51%,–
O=C(NN=C1CCCC1)c1n[nH]c2c1CCC2,inactive: 0.023%,–
COc1cc(C(=O)NCc2cc(C)nc3ccccc23)cc(OC)c1OC,inactive: -1.47%,–
NC(=O)NC[C@@H]1CC[C@@H](Cc2ccc(-c3ccccc3)cc2)O1,inactive: -0.286%,–
Cc1[nH]n(C(N)=S)c(=O)c1N=Nc1cccc(Cl)c1,–,active: 20.6 µM
CCNC(=O)[C@H]1O[C@@H](n2cnc3c(N)nc(NCCc4ccc(CCC(=O)O)cc4)nc32)[C@H](O)[C@@H]1O,inactive: -0.664%,–
CCC(C)NC(=O)c1ccccc1NC(=O)c1ccc(CSc2ccccc2)cc1 (configuration not stated),inactive: 0.779%,–
CC1=NN(C(N)=S)C(=O)C1N=Nc1ccc(C)c(Br)c1 (configuration not stated),inactive: -3.08%,–
COc1cc(NC(=O)CSc2nc3[nH]ncc3c(=O)n2-c2ccccc2C)cc(OC)c1OC,inactive: -0.526%,–
CC1=CC(C)(C)N(S(=O)(=O)c2ccc(C)cc2)c2ccccc21,inactive: -3.65%,–
C=CCn1c(O)c(N=NC(=S)Nc2ccccc2F)c2cc(S(=O)(=O)N3CCOCC3)ccc21,inactive: -11%,–
COC(=O)c1ccc(C)c(NS(=O)(=O)c2ccc3c(c2)OCCO3)c1,inactive: -3.3%,–
NC(=S)N=Nc1c(O)n(Cc2ccc(Br)cc2)c2ccccc12,inactive: -6.42%,–
CN(C(=O)c1ccc(-c2nn(C)c(=O)c3ccccc23)cc1)C1CCCCC1,inactive: -0.996%,–

Structure (SMILES),"activity change, negative = inhibition",Potency
Cc1noc(C)c1CSc1ncnc2ccccc12,inactive: -0.785%,–
CS(=O)(=O)C1=C(O)C(=O)N(c2ccccc2)C1c1ccccc1 (configuration not stated),inactive: -0.401%,–
COc1c(Cl)cc(C(=O)NN)cc1Cl,inactive: -0.427%,–
C=CCN(C(=O)CSC1=NC(=O)CN1C(C)=O)c1nc(C)c(-c2ccccc2)s1,inactive: -0.952%,–
COc1ccc(C2=NC(C)(C)Cc3cc(OC)c(OC)cc32)cc1OC,inactive: 0.417%,–
COc1ccc(CCNC(=O)Cn2c(=O)cnc3ccccc32)cc1,inactive: -0.695%,–
CCN(CC)c1ccc(NC(=O)CN2CCN(CC(=O)Nc3ccccc3F)CC2)cc1,inactive: -1.99%,–
CCOC(=O)COc1cccc2c(=O)n(CC(=O)NCc3ccccc3)ccc12,inactive: -1.42%,–
Cc1cccc(C)c1NC(=O)CNC(=O)CNC(=O)Cc1cccc2ccccc12,inactive: -0.0296%,–
COc1cc2c(cc1OC)C(c1ccc(OC)c(OC)c1OC)CC(=O)N2 (configuration not stated),inactive: -0.252%,–
C/C(=N\N1C(=O)c2ccccc2NC1c1ccco1)c1ccccc1O (configuration not stated),inactive: -0.879%,–
CCOc1cc(-c2nnc(SCC(=O)NCc3ccccc3)nc2-c2ccc(OC)c(OCC)c2)ccc1OC,inactive: -3.71%,–
COC(=O)c1ccc(C)c(NS(=O)(=O)c2ccc(OC)cc2)c1,inactive: -4.42%,–
Oc1[nH]c2ccc(Br)cc2c1N=NC(=S)Nc1ccc(F)cc1,inactive: -1.74%,–
COc1ccc(N2CC(C(=O)N3CCC(c4nc5ccccc5[nH]4)CC3)CC2=O)cc1 (configuration not stated),inactive: 0.0151%,–
CCOc1ccc2nc(N3C(=O)CNC3=S)sc2c1,inactive: 23.2%,–
COc1ccc(/C=C/C(=O)c2cc(F)ccc2OC(=O)c2ccccc2OC)cc1OC,inactive: -23%,–
COC(=O)COc1cccc2c(=O)n(CC(=O)NCc3ccccc3)ccc12,inactive: -0.758%,–
CCOC(=O)c1ccc(NC(=S)NNC(C)(C)C)cc1,inactive: -0.0435%,–
CCOC(=O)C1=C(O)c2ccccc2C(=O)/C1=C\c1ccc(CC)cc1,inactive: -7.74%,–
O=c1cnnc(N/N=C/C2CC=CCC2)[nH]1 (configuration not stated),inactive: -0.849%,–
